Experimental data reported in the supplement of paper PMC4967469.
A lower IC50 marks a more sensitive line; where the fit passes the top or lowest dose, that dose stands as a limit. AUC is the area under the same curve over the 256-fold range up to the top dose, as a fraction; values near 1 show little effect. For part of these data: A top dose marked as inferred was calculated from the reported fits.

Tests used:
Experiment in all cases: Viability of human cancer cell lines after 72 h of drug (GDSC screen)
XL-880 = compound: COc1cc2c(Oc3ccc(NC(=O)C4(C(=O)Nc5ccc(F)cc5)CC4)cc3F)ccnc2cc1OCCCN1CCOCC1 [XL-880]; conditions: top dose 5.12 µM; top dose inferred
Procedure: (§1)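 Human cancer cell lines in 384-well plates, medium with 10% serum, drug for 72 h over a 256-fold dose range (nine 2-fold or five 4-fold steps up to the top dose). Adherent lines were fixed and stained with the nucleic acid dye Syto60, suspension lines read with resazurin; signal relative to control wells, capped at 0 and 100%. One two-parameter sigmoid per drug and line, fitted in a mixed model over all curves with the slope shared within a line.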

Temozolomide = compound: Cn1nnc2c(C(N)=O)ncn2c1=O [Temozolomide]; conditions: top dose 30 µM
Procedure: as §1

JW-7-52-1 = compound: CCC(=O)N1CCN(c2ccc(-n3c(=O)ccc4cnc5ccc(-c6cnc7ccccc7c6)cc5c43)cc2C(F)(F)F)CC1 [JW-7-52-1]; conditions: top dose 1.2 µM; top dose inferred
Procedure: as §1

Z-LLNle-CHO = compound: CCCC[C@@H](C=O)NC(=O)[C@H](CC(C)C)NC(=O)[C@H](CC(C)C)NC(=O)OCc1ccccc1 [Z-LLNle-CHO]; conditions: top dose 2.56 µM; top dose inferred
Procedure: as §1

CI-1040 = compound: O=C(NOCC1CC1)c1ccc(F)c(F)c1Nc1ccc(I)cc1Cl [CI-1040]; conditions: top dose 10 µM; top dose inferred
Procedure: as §1

Rapamycin = compound: CO[C@H]1C[C@@H]2CC[C@@H](C)[C@@](O)(O2)C(=O)C(=O)N2CCCC[C@H]2C(=O)O[C@H]([C@H](C)C[C@@H]2CC[C@@H](O)[C@H](OC)C2)CC(=O)[C@H](C)/C=C(\C)[C@@H](O)[C@@H](OC)C(=O)[C@H](C)C[C@H](C)/C=C/C=C/C=C/1C [Rapamycin]; conditions: top dose 0.1 µM; top dose inferred
Procedure: as §1

ZG-10 = compound: CN(C)C/C=C/C(=O)Nc1ccc(C(=O)Nc2cccc(Nc3nccc(-c4cccnc4)n3)c2)cc1 [ZG-10]; conditions: top dose 10 µM; top dose inferred
Procedure: as §1

Tubastatin A = compound: CN1CCc2c(c3ccccc3n2Cc2ccc(C(=O)NO)cc2)C1 [Tubastatin A]; conditions: top dose 20 µM
Procedure: as §1

IPA-3 = compound: Oc1ccc2ccccc2c1SSc1c(O)ccc2ccccc12 [IPA-3]; conditions: top dose 32 µM; top dose inferred
Procedure: as §1

Row | Cell Line | AUC (XL-880) | IC50 (XL-880) [nM] | AUC (Temozolomide) | IC50 (Temozolomide) [nM] | AUC (JW-7-52-1) | IC50 (JW-7-52-1) [nM] | AUC (Z-LLNle-CHO) | IC50 (Z-LLNle-CHO) [nM] | AUC (CI-1040) | IC50 (CI-1040) [nM] | AUC (Rapamycin) | IC50 (Rapamycin) [nM] | AUC (ZG-10) | IC50 (ZG-10) [nM] | AUC (Tubastatin A) | IC50 (Tubastatin A) [nM] | AUC (IPA-3) | IC50 (IPA-3) [nM]
1 | SBC-1 (small cell lung carcinoma, suspension) | 0.938 | > 5120 | 0.983 | > 30000 | 0.585 | 127 | 0.937 | > 2560 | 0.988 | > 10000 | 0.781 | 39.9 | 0.56 | 908 | 0.781 | 8000 | 0.988 | > 32000
2 | LS-513 (large intestine, adherent) | 0.642 | 803 | 0.973 | > 30000 | 0.711 | 305 | 0.799 | 1290 | 0.595 | 1150 | 0.978 | > 100 | 0.865 | 9430 | 0.949 | > 20000 | 0.984 | > 32000
3 | SIMA (neuroblastoma, adherent) | 0.611 | 674 | 0.984 | > 30000 | 0.864 | > 1200 | 0.98 | > 2560 | 0.92 | > 10000 | 0.984 | > 100 | 0.889 | > 10000 | 0.95 | > 20000 | 0.98 | > 32000
4 | SHP-77 (small cell lung carcinoma, semi-adherent) | 0.707 | 1140 | 0.991 | > 30000 | 0.893 | 1160 | 0.875 | 2070 | 0.979 | > 10000 | 0.986 | > 100 | 0.837 | 5720 | 0.948 | > 20000 | 0.953 | > 32000
5 | RH-1 (rhabdomyosarcoma, adherent) | 0.367 | 147 | 0.962 | > 30000 | 0.701 | 246 | 0.905 | 2460 | 0.974 | > 10000 | 0.991 | > 100 | 0.674 | 1740 | 0.804 | 8090 | 0.834 | 16300
6 | GRANTA-519 (B-cell lymphoma, suspension) | 0.769 | 1740 | 0.98 | > 30000 | 0.83 | 650 | 0.789 | 1010 | 0.944 | > 10000 | 0.919 | > 100 | 0.821 | 5020 | 0.99 | > 20000 | 0.969 | > 32000
